# Source: PubChem BioAssay AID504832 (National Center for Advancing Translational Sciences (NCATS), 2011)
# Screen size: about 310,000 compounds; about 18,000 (5.8%) were called active. The shares of active, inactive and inconclusive entries below differ from those in the screen. The call rests on the fitted dose curve; in most records, active means well fitted inhibition curve with a large enough effect; inconclusive means small, poorly fitted or top-dose-only effect, or another doubt; inactive means no such curve, though single readings can be large or run the other way. Potencies of inconclusive entries are left out as doubtful fits.
# Assay: Primary qHTS for delayed death inhibitors of the malarial parasite plastid, 48 hour incubation
# Conditions: P. falciparum luciferase growth in erythrocytes; series mostly up to 28.7 µM
# Outline: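 Luminescence readout; reporter = integrated firefly luciferase in P. falciparum. RBC culture at 2% hematocrit, 0.1% parasitemia final, 37 C/5% CO2; decreased signal taken as growth inhibition.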
# Potency means the concentration at half of the fitted maximal effect; tags describe the fitted curve by direction and shape.
row,SMILES,Potency
1,CCCCNC(=O)CSc1nc(O)c(Cc2ccc(OC)cc2)c(=O)[nH]1,"inconclusive [inhibitor, single point]"
2,CCCCN(C)C(=O)CCCc1c[nH]c2ccccc12,"inconclusive [inhibitor, single point]"
3,COC(=O)/C=C1\NC(=O)C(C)S1 (stereo unspecified),inactive
4,CC(C)(C)NC(=O)NC(=O)COC(=O)Cn1cnc2ccccc2c1=O,active: 11.7 µM
5,COc1cc(C2c3c(-c4cc(C)cc(C)c4O)n[nH]c3C(=O)N2CCCO)cc(OC)c1OC (stereo unspecified),"inconclusive [inhibitor, partial curve]"
6,CC(NC(=O)C(=O)N1CCOCC1)C(c1cccs1)N1CCN(c2ccccc2F)CC1 (stereo unspecified),"inconclusive [inhibitor, single point]"
7,CCCOc1ccc(C(=O)OCC(=O)NCCc2ccc(OCC)c(OCC)c2)cc1OC,"inconclusive [inhibitor, single point]"
8,CCN(CC)S(=O)(=O)c1ccc(N2CCOCC2)c(NC(=O)CCC2CCCCC2)c1,active: 8.28 µM
9,Cc1ccc(/C=C/C(=O)Nc2ccc(O)c3c(=O)cc(-c4ccccc4Cl)oc23)cc1,"inconclusive [inhibitor, single point]"
10,CCOc1ccc2c(c1)C(C)=CC(C)(C)N2S(=O)(=O)c1ccc(NC(C)=O)cc1,active: 6.57 µM
11,Cn1c(N)c(C(=O)COC(=O)/C=C/c2cccc(C(F)(F)F)c2)c(=O)n(C)c1=O,"inconclusive [inhibitor, single point]"
12,Cc1csc2ncnc(N3CCN(C(=O)Nc4ccc(OC(F)(F)F)cc4)CC3)c12,"inconclusive [inhibitor, partial curve]"
13,COc1ccc(N(C)S(=O)(=O)c2cccc(C(=O)Nc3cccc(C(=O)NC4CC4)c3)c2)cc1,active: 5.22 µM
14,CC(C(=O)NC1C(=O)N2C(C(=O)O)=C(CSc3nnnn3C)CSC12)n1cc(Br)cn1 (stereo unspecified),inactive
15,COCCCNC(=O)c1cccc(S(=O)(=O)N2CC3(C)CC2CC(C)(C)C3)c1 (stereo unspecified),"inconclusive [inhibitor, partial curve]"
16,CCCCN(C)C(=O)c1cc2cc3cc(OC)ccc3nc2o1,"inconclusive [inhibitor, full curve]"
17,O=C(c1cc(COc2ccc(F)cc2Cl)on1)N1CCN(c2cnccn2)CC1,inactive
18,O=C1N=C(N2C=CC(=C3C=CNC=C3)C=C2)/C(=C/N=NC(=O)c2ccccc2O)S1,inactive
19,CCC(C)(C)NC(=O)CN(C(=O)CCC(=O)Nc1nccs1)c1cccc(C)c1C,active: 13.1 µM
20,COc1ccccc1N(C)S(=O)(=O)c1ccc(C(=O)Nc2ncc(C)s2)cc1,"inconclusive [inhibitor, partial curve]"
21,O=[N+]([O-])c1ccc(CN2CCSCC2)cc1,"inconclusive [inhibitor, partial curve, poor fit]"
22,O=C(CSc1nnc(NC(=O)C2CC2)s1)Nc1ccc2c(c1)OCCO2,inactive
23,OCCNCc1cccc(OCc2ccccc2Cl)c1,"inconclusive [inhibitor, single point]"

row,SMILES,Potency
1,O=C(/C=C/c1ccco1)N(Cc1cccc(F)c1)C1CCS(=O)(=O)C1 (stereo unspecified),inactive
2,CC(=O)N/C(=N/c1nc(C)cc(C)n1)Nc1ccc(NC(C)=O)cc1,"inconclusive [inhibitor, single point]"
3,COc1ccccc1N1CCN(C(=O)COc2cccc(C)c2C)CC1,"inconclusive [inhibitor, single point]"
4,Cc1ccccc1NC(=O)COC(=O)/C=C/c1cn(-c2ccccc2)nc1-c1cccnc1,"inconclusive [inhibitor, partial curve, poor fit]"
5,O=c1cc(CSc2nnc(C3CC3)n2Cc2ccccc2)nc2sccn12,inactive
6,Cc1ccc(C2C(=O)N(C3CCCC3)CC(=O)N2CC2COc3ccccc3O2)cc1 (stereo unspecified),"inconclusive [inhibitor, partial curve, poor fit]"
7,COc1ccc(N(CC(=O)NCCc2ccc(OC)c(OC)c2)S(=O)(=O)c2c(C)noc2C)cc1,"inconclusive [inhibitor, partial curve, poor fit]"
8,O=S(=O)(Nc1ccc(-c2ccc3nncn3n2)cc1)c1cc(F)ccc1F,"inconclusive [inhibitor, partial curve, poor fit]"
9,C=CCNC1=C2C[C@@H](C)C[C@H](OC)[C@H](O)[C@@H](C)/C=C(\C)[C@H](OC(N)=O)[C@@H](OC)/C=C\C=C(/C)C(=O)NC(=CC1=O)C2=O,active: 0.601 µM
10,CCCc1cc(-c2[nH]ncc2-c2ccc3c(c2)OCCCO3)c(O)cc1OC,active: 3.7 µM
11,CCc1ccccc1OCC(=O)OCC(=O)c1c(N)n(C)c(=O)n(C)c1=O,inactive
12,O=C(Nc1cccs1)Nc1c(F)c(F)c(F)c(F)c1F,"inconclusive [inhibitor, single point]"
13,COc1ccc(-c2nc(CS(=O)CC(=O)NCCc3ccc(OC)c(OC)c3)c(C)o2)cc1 (stereo unspecified),"inconclusive [inhibitor, single point]"
14,C(=N\Nc1nc2ccccc2[nH]1)/c1cccs1,active: 2.94 µM
15,O=C(NCc1ccco1)C1CC(c2cc(C(F)(F)F)cc(C(F)(F)F)c2)=NO1 (stereo unspecified),inactive
16,CCOC(=O)N1CCN(C(=O)c2ccc(Oc3ccc([N+](=O)[O-])cc3)cc2)CC1,"inconclusive [inhibitor, single point]"
17,O=C(COC(=O)c1ccc2c(c1)OCO2)Nc1ccccc1F,inactive
18,Cc1ccc(NC(=O)CSc2nnc(C)c(=O)[nH]2)cc1C,inactive
19,O=C(Nc1ccccc1F)c1ccc(CN2CCc3ccccc3C2)cc1,inactive
20,Clc1nn2cnnc2c2ccccc12,inactive
21,CCC(=O)NC(c1ccc([N+](=O)[O-])cc1)c1c(O)ccc2ccccc12 (stereo unspecified),active: 4.15 µM
22,Cn1ccnc1SCC(=O)c1ccc(O)cc1,inactive
23,Cc1nn(C)c(C)c1CN(Cc1nc(CCC(C)C)no1)C(C)C,"inconclusive [inhibitor, partial curve, poor fit]"
